# Test results published in PubChem BioAssay AID1745853 (National Center for Advancing Translational Sciences (NCATS), 2022).
# The other results are listed elsewhere or left out. The main result of the screen is listed elsewhere. These columns were measured beside it and carry no call. Peptide text beside a SMILES is read from it. * marks the point of attachment. Cbz = O=C(OCc1ccccc1)*; CH2F = FC*
# What was measured:
# Test in all cases: Primary Screen for Target Class Profiling of Small Molecule Inhibitors of Methyltransferases
# [1] = target: Glycine N-methyltransferase (Homo sapiens) (UniProt Q14749); conditions: purified enzyme, MTase-Glo SAH luminescence; measured here: GNMT inhibition; at 40 µM; stronger effect = lower value
# Summary of the method: (§1)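 Each enzyme was assayed with SAM and its substrate. SAH formation detected by MTase-Glo luminescence; single-point 40 uM screen[…].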
# [2] = target: Guanidinoacetate N-methyltransferase (Homo sapiens) (UniProt Q14353); conditions: purified enzyme, MTase-Glo SAH luminescence; measured here: GAMT inhibition; at 40 µM; stronger effect = lower value
# Summary of the method: as §1
# [3] = target: Histamine N-methyltransferase (Homo sapiens) (UniProt P50135); conditions: purified enzyme, MTase-Glo SAH luminescence; measured here: HNMT inhibition; at 40 µM; stronger effect = lower value
# Summary of the method: as §1
# [4] = target: Nicotinamide N-methyltransferase (Homo sapiens) (UniProt P40261); conditions: purified enzyme, MTase-Glo SAH luminescence; measured here: NNMT inhibition; at 40 µM; stronger effect = lower value
# Summary of the method: as §1
# [5] = target: Phenylethanolamine N-methyltransferase (Homo sapiens) (UniProt P11086); conditions: purified enzyme, MTase-Glo SAH luminescence; measured here: PNMT inhibition; at 40 µM; stronger effect = lower value
# Summary of the method: as §1
# % is set by controls: 0 for no effect and ±100 for the full control effect.
SMILES,"activity change, negative = inhibition [1]","activity change, negative = inhibition [2]","activity change, negative = inhibition [3]","activity change, negative = inhibition [4]","activity change, negative = inhibition [5]"
CC(C)(Oc1ccc(CCNC(=O)c2ccc(Cl)cc2)cc1)C(=O)O,0.062%,14.4%,7.97%,-6.44%,2.02%
OCCN1CCN(CCCN2c3ccccc3Sc3ccc(C(F)(F)F)cc32)CC1,-7.3%,3.8%,-3.92%,-37.4%,4.02%
O=C(CCn1ccc2cc(S(=O)(=O)N3CCCCC3)ccc21)NCc1cccnc1,3.66%,2.82%,6.68%,2.64%,2.91%
CCCCNC(=O)Cn1ccc2cc(S(=O)(=O)N3CCCC3)ccc21,1.72%,4.43%,-4.62%,1.63%,0.514%
COc1ccc(-c2nnc3n(Cc4ccc(F)cc4)c(=O)c4ccccc4n23)c(OC)c1,-5.37%,5.91%,-3.8%,-5.62%,-5.83%
CCOc1ccc(-c2nn3ncccc3c2-c2ccc(S(C)(=O)=O)cc2)cc1,-16.7%,-6.14%,-1.18%,-31.9%,-5.13%
CCOC(=O)c1cc2n(n1)CC(C)(C(=O)NCc1ccccc1)N(Cc1ccc(Cl)cc1)C2=O (stereo not given),0.171%,0%,3.66%,1.14%,-1.08%
COCCCNc1nc2c(S(=O)(=O)c3c(C)cc(C)cc3C)nnn2c2ccccc12,-5.84%,3.35%,-6.35%,-3.68%,-3.93%
O=C(NCC1CCCO1)N1CCCCCCn2c(nnc2-c2ccc(F)cc2)CC1 (stereo not given),-0.432%,-9.14%,0.171%,-8.31%,-2.5%
CC(C)C[C@H](NC(=O)[C@@H]1C[C@@H](n2nnc(C(N)=O)c2C(N)=O)CCN1C(=O)c1cnccn1)C(N)=O,-1.89%,-0.289%,-1.4%,-2.87%,-2.62%
CCCn1c(=O)c2ccccc2n2c(=O)n(CC(=O)c3cccc(Cl)c3)nc12,2.76%,3.25%,10.3%,-32.1%,5.4%
O=C(CCc1nnc2n(CCc3ccccc3)c(=O)c3ccccc3n12)N1CCN(Cc2ccccc2)CC1,-12.4%,0%,-3.82%,-24.5%,-1.35%
Cc1cn2nc(C(=O)NCc3cccnc3)cc2c(=O)[nH]1,-0.231%,0.123%,0.012%,-3.08%,0.488%
CC(C)(C)c1ccc(/C=C/C(=O)Nc2ccc3c(c2)OCCO3)cc1,2.15%,15.1%,8.72%,-2.47%,5.35%
CCN1C(=O)C2CC3(CCN(Cc4cnn(CC)c4C)CC3)CN2C1=O (stereo not given),-0.111%,0.386%,3.38%,0.864%,0.987%
COc1cc(=O)n2c(c1C(=O)N1CCN(c3ccc(C)cc3C)CC1)CCCC2,-2.28%,1.11%,0.004%,-0.275%,2.26%
COc1nccnc1-c1cc(NCCN(C)C)nc2[nH]ccc12,-8.71%,-11.5%,-10.4%,-17.4%,-20.3%
C1=CC2c3c(ccc4ccccc34)NC(c3cccc4ccccc34)C2C1 (stereo not given),6.11%,1.96%,-13.6%,-22.5%,-23%
CCc1ccccc1NS(=O)(=O)c1ccc2[nH]c3c(c2c1)CCCC3,1.36%,0%,4.72%,-21.2%,2.46%
O=C(C1CCCC1)N1CCCC(c2nn[nH]n2)C1 (stereo not given),-0.048%,-3.92%,1.76%,-7.27%,-6.97%
O=C1NC(Cc2ccc(O)cc2)C(=O)N2CCCC12 (stereo not given),-2.25%,-7.28%,5.28%,-17.1%,-7.36%

SMILES,"activity change, negative = inhibition [1]","activity change, negative = inhibition [2]","activity change, negative = inhibition [3]","activity change, negative = inhibition [4]","activity change, negative = inhibition [5]"
COC(=O)c1cc2n(n1)CC(C)(C(=O)NC1CCCCC1)N(CCc1cccs1)C2=O (stereo not given),1.13%,4.57%,7.55%,-3.02%,0.731%
CCCn1c(=O)c2ccc(C(=O)NC(C)C)cc2n2c(=O)n(CC(N)=O)nc12,3.92%,0%,2.48%,4.36%,2.09%
Cc1cccc(-c2nnn3c2nc(NC2CCCC2)c2ccccc23)c1,-4.14%,0%,1.69%,-6.5%,-5.81%
CC1CCC(NC(=O)C2(C)Cn3c(nc4ccccc43)C(=O)N2Cc2cccc(Cl)c2)CC1 (stereo not given),2.85%,0%,0.866%,-4.62%,-3.49%
CC[n+]1c(/C=C/C=C2/N(C)c3ccccc3C2(C)C)sc2ccccc21,-61.4%,-47.9%,-72.8%,-75.6%,-54%
CCc1ccc(C(=O)NC(Cc2c[nH]c3ccccc23)C(=O)OCC(=O)c2ccc(C)cc2)cc1 (stereo not given),12.6%,0%,9.9%,1.68%,3.98%
COc1cccc([S+](=O)([O-])N2CC(N3CCc4ccccc43)C2)c1,-5.99%,1.02%,-0.211%,-4.34%,-0.372%
Cc1ccc(CNC(=O)c2ncn3c2C(=O)N(C2CC2)C(C)(C(=O)NC2CCCC2)C3)cc1 (stereo not given),-10.1%,-1.06%,-10.5%,-11.2%,-7.74%
CCNC(=O)[C@@H]1C[C@H](N)CN1C(=O)C(C)(C)Oc1ccc(C)cc1,0.965%,-2.57%,1.67%,2.47%,1.2%
CS(=O)(=O)N1CCC(NC(=O)c2[nH]ncc2NC(=O)c2c(Cl)cccc2Cl)CC1,-6.6%,-8.08%,3.36%,-25.8%,1.13%
C=C1CC2(C(=O)O)CC1CCC2C1(C)CCCC2(C)C(=O)OC(O)C21 (stereo not given),2.74%,7.19%,7.74%,-9.37%,3.78%
COc1cccc(Cn2nc3n(Cc4ccccc4)c(=O)c4ccc(C(=O)NC(C)C)cc4n3c2=O)c1,7.21%,1.23%,7.4%,6.21%,7.13%
COC[C@H]1C[C@@H](NC2CCN(C(C)=O)CC2)[C@H](O)[C@@H]1O,-2.18%,-1.94%,-2.3%,-4.74%,-12.4%
CCC(C)NC(=O)c1ccc2c(=O)n(CC(C)C)c3nn(CC(=O)c4ccc(C)cc4)c(=O)n3c2c1 (stereo not given),1.79%,0%,6.96%,-5.69%,-1.44%
COc1ccc([C@@H]2N[C@H](C(=O)O)Cc3c2[nH]c2ccccc32)cc1CN1CCN(c2ccccc2F)CC1,-11.9%,-3.18%,-21.1%,-24.9%,-10.3%
CSc1cccc(N2C(=O)c3cc(-c4ccco4)nn3CC2(C)C(=O)NC2CCCCCC2)c1 (stereo not given),-1.78%,2.51%,-6.51%,-1.74%,-5.99%
CC(C)OCCCn1c(=O)c2ccccc2n2c(=O)n(CC(=O)NC3CCCCC3)nc12,4.08%,1.92%,10%,3.76%,6.3%
CCCn1c(=O)c2ccc(C(=O)NC3CCCC3)cc2n2c(=O)n(CC(=O)c3ccccc3)nc12,-0.639%,0%,0.848%,0.402%,3.41%
COc1ccc(OC)c2c1cc1n2CC(C)(C(=O)NC2CCCCC2)N(Cc2cccs2)C1=O (stereo not given),-14.2%,0.23%,7.23%,2.04%,-1.95%
CCc1cc2c(cc3n2CC(C)(C(=O)NC2CCCCC2)N(Cc2ccccc2F)C3=O)s1 (stereo not given),0.087%,4.19%,4.49%,1.41%,-1.41%
CC(=O)Nc1cccc(CN2CCC(N3CCCNC3=O)CC2)c1,-1.32%,-10.3%,-1.9%,-14.9%,-11.6%

SMILES,"activity change, negative = inhibition [1]","activity change, negative = inhibition [2]","activity change, negative = inhibition [3]","activity change, negative = inhibition [4]","activity change, negative = inhibition [5]"
Cc1cnc(C2CCC2)n1CC1CCN(C(=O)COCc2ccccc2)C1 (stereo not given),-4.05%,1.49%,-22.5%,-0.664%,-0.499%
CCCCN1C(=O)c2cc3ccc(OC)cc3n2CC1(C)C(=O)NC1CCCCC1 (stereo not given),1.79%,2.77%,5.95%,-2.73%,0.458%
CSc1cccc(N2C(=O)CSc3c(c4ccccc4n3C)C2C(=O)NCCC(C)C)c1 (stereo not given),1.54%,3.55%,-5.31%,-7.65%,-0.649%
COC(=O)CC[C@H](NC(=O)[C@H](CC(C)C)NC(=O)OCc1ccccc1)C(=O)N[C@@H](Cc1cnc[nH]1)C(=O)N[C@@H](CC(=O)OC)C(=O)CF (Cbz-LE(OMe)HD(OMe)-CH2F),2.8%,0.65%,5.42%,-8.91%,1.46%
COc1ccc(CC(=O)N(C)C2CCc3nnc(C)n3CC2)cc1Cl (stereo not given),-0.196%,4.31%,0.193%,-0.275%,17.9%
COCCn1cnnc1CCNC(=O)c1oc2cc(OC)ccc2c1C,-7.53%,-7.09%,-4.49%,-14.7%,6.27%
COCCNc1ncc(-c2ccc(F)cc2)c2c1OCC2,-9.81%,-2.6%,-1.57%,-14%,4.44%
CCCn1c(=O)c2ccc(C(=O)NC(C)C)cc2n2c(SCC(=O)c3ccc(F)cc3)nnc12,2.09%,3.42%,1.54%,2.46%,1.84%
CCCN1C(=O)c2cc(C(=O)NCc3ccccc3OCC)nn2CC1(C)C(=O)NC1CCCC1 (stereo not given),-1.92%,0.833%,-6.72%,-6.91%,-5.42%
O=C(Cn1nc2n(Cc3ccccc3)c(=O)c3ccccc3n2c1=O)Nc1cccc(Cl)c1,0.135%,5.59%,3.1%,-3.88%,1.82%
CC(C)Nc1cc(-c2c[nH]c(C(=O)N[C@H](CO)c3cccc(Cl)c3)c2)c(Cl)cn1,-9.9%,1.66%,0.584%,-45.1%,-6.32%
Cc1ccc(N(CC2=NCCN2)c2cccc(O)c2)cc1,0.794%,8.86%,-4.16%,-10.8%,1.52%
CCc1ccc(-c2cc3n(n2)CC(C)(C(=O)NC2CCCCC2)N(Cc2ccco2)C3=O)cc1 (stereo not given),1.42%,1.97%,5.42%,4.49%,1.33%
O=C(Cn1ccc2cc(S(=O)(=O)N3CCCC3)ccc21)NC1CCCCC1,2.74%,0%,6.52%,2.36%,1.61%
NCCCC(=O)N1CCCC2(Cc3ccccc3CN2C(=O)c2cccc(Cl)c2)C1 (stereo not given),-8.52%,-2.1%,-3.65%,-16.1%,-5.6%
CCc1cc2c(cc3n2CC(C)(C(=O)NC2CCCCCC2)N(CCN(CC)CC)C3=O)s1 (stereo not given),6.36%,0%,3.48%,6.53%,-3.2%
Cn1cccc1CN1CCC2(C1)C(=NC1CCCC1)NC(=O)N2c1cccnc1 (stereo not given),-7.81%,-0.726%,0.198%,-2.29%,4.05%
COc1ccc(CCC(=O)N2CCC3(CC2)CC(C(=O)N2CCOCC2)N(C)C3)cc1 (stereo not given),0.785%,1.2%,2.66%,-1.27%,13.5%
CCc1ccccc1NC(=O)Cn1nc2n(C(C)C)c(=O)c3ccc(C(=O)NC(C)CC)cc3n2c1=O (stereo not given),4.92%,0%,8.25%,0.58%,6.03%
